Laboratory results: ChEMBL document CHEMBL4888484, “Replenishing the malaria drug discovery pipeline: Screening and hit evaluation of the MMV Hit Generation Library 1 (HGL1) against asexual blood stage Plasmodium falciparum ,using a nano luciferase reporter read-out” (2022)
Among all 150,000 compounds or so, about 540 (0.36%) showed an effect of 50% or more. The list shows a part of the results.

The molecules below were run on Plasmodium falciparum (assay: Primary screen in NF54 nanoGlo assay, in single point, at 2uM, 72h; a lower Z score goes with more inhibition). Conditions: timepoint 72 hour.
Format: functional, Erythrocyte

Row | SMILES | % Inhibition [%] | Z score
1 | CCCC(=O)Nc1cccc(C2OC(=O)N(Cc3cccc(Cl)c3)C2C(=O)NCc2ccco2)c1 (stereo unspecified) | -7 | 0.72
2 | O=C(OCc1nnc(-c2ccccc2)o1)c1cc(Cl)c[nH]1 | -8 | 0.95
3 | CCCn1c(-n2nc(C)nc2-c2cn(C)c(=O)[nH]c2=O)nc2ccccc21 | 9 | -1.13
4 | C[C@@H](CS(C)(=O)=O)NC(=O)c1cncc(Br)c1 | -9 | 1.05
5 | O=C(NCc1cccs1)[C@H]1CCCN(c2nnc3ccccn23)C1 | -10 | 1.14
6 | C=CC(C)(CC)C(=O)N1CCN(C(C)C(=O)N2CCCCC2)CC1 (stereo unspecified) | -19 | 1.98
7 | Nc1cc(Br)ccc1CO | 26 | -2.93
8 | Cc1cc(CN2CCCC2)cc(C)c1Oc1cncc(CN(C)C)n1 | -7 | 0.67
9 | CC1C(C(F)(F)F)CCN1C(=O)Cn1c(=O)cnc2ccccc21 (stereo unspecified) | -18 | 2.07
10 | Cc1cnc(CCNC(=O)C2CCCC2)n1C1CCC1 | -4 | 0.8
11 | CC(=O)N(c1nc(CN2CCCC2C2CCCN2Cc2ccccc2)cs1)C1CC1 (stereo unspecified) | -3 | 0.42
12 | Cc1nc2ccc(N(C)C(=O)CC(=O)NCC(F)(F)F)cc2s1 | -9 | 0.9
13 | COc1cc(C)c(S(=O)(=O)N2CCN(S(=O)(=O)c3cc(C)c(OC)cc3C)[C@@H](C)C2)cc1C | 26 | -2.92
14 | Cc1noc(C)c1CN(C)Cc1ccc(-c2ccccc2C#N)o1 | 2 | -0.27
15 | Cc1ccc(NC(=O)c2cccc3c(=O)c4c([nH]c23)CCC4)cc1Cl | -11 | 2.08
16 | O=C(NCc1nc(CN2CCO[C@H](C(F)F)C2)cs1)c1ccccc1 | 0 | 0.07
17 | CN(C)S(=O)(=O)N1C[C@H]2CC[C@@H](C1)N(C(=O)c1n[nH]c3ccccc13)C2 | -15 | 2.54
18 | CN1CC[C@@H](c2nc(-c3cccc(OCC(F)F)n3)no2)S1(=O)=O | -5 | 0.9
19 | Cc1nc2ccc(C(=O)N3CCOc4ccc(CN5CCOCC5)cc4C3)cc2nc1C | -6 | 0.95
20 | CC(C)c1cc(-c2nc(N(C)C)no2)n[nH]1 | -6 | 1.03
21 | CC(=O)N1CCc2[nH]cnc2C12CCN(C(=O)c1ccc(O)cc1)CC2 | -2 | 0.26
22 | CN(C)c1ccc(COCc2ccc(C#N)cc2)cc1 | 0 | -0.06
23 | CCN(CCN(C)C)C(=O)c1cc(C)nc(C)n1 | -13 | 1.16
24 | Cc1ccsc1-c1ccc(C(=O)N[C@H]2CC[C@@H](N)C2)cc1 | -5 | 0.75
25 | Cc1nocc1S(=O)(=O)N[C@H]1CC(=O)N(C)[C@@H]1c1cccnc1 | -12 | 2.33
26 | Cc1nnc(NC(=O)CC[C@@H](C)[C@H]2CC[C@H]3[C@@H]4CC[C@@H]5C[C@H](O)CC[C@]5(C)[C@H]4C[C@H](O)[C@]23C)s1 | -13 | 1.68
27 | COc1cc2c(cc1OC)CN(C(=O)C1CCOCC1)CC2 | -17 | 1.4

Row | SMILES | % Inhibition [%] | Z score
28 | CS(=O)(=O)N1CCC(C(=O)N[C@@H](CN2C(=O)COC2=O)c2ccccc2)CC1 | 18 | -2.87
29 | CCOC(=O)C(=O)N1CCN(c2nc3nccc(-c4cc(Cl)ccc4Cl)n3n2)CC1 | -16 | 2.16
30 | Cc1ccsc1CN(C)C(=O)c1cn(Cc2cccc3ccccc23)nn1 | -10 | 1.56
31 | COc1ccc(CCC(=O)N2C3CCC2CC(OC)C3)cc1 (stereo unspecified) | -18 | 2.26
32 | COCCCn1cnc2c(-c3ccccc3)c[nH]c2c1=O | -5 | 0.89
33 | O=C(CC1CCCCC1)Nc1ncc(C2CCNCC2)s1 | 9 | -1.77
34 | Cn1cnn(CCOc2ccc(F)cc2Cl)c1=O | -1 | 0.12
35 | Fc1ccc2oc(N3CCOC[C@H]3c3nc(-c4cccs4)no3)nc2c1 | 0 | -0.05
36 | COc1ccc(CCn2c(-c3c(OC)ccc4ccccc34)nc3ccc(Cl)cc3c2=O)cc1 | 0 | -0.01
37 | Cc1ccc2nc(N3CCC(C)CC3)cc(=O)n2c1 | -8 | 1.11
38 | COc1ccc2cc1Oc1ccc(cc1)CC1c3cc(OC)c(O)c(c3CCN1C)Oc1cc3c(cc1OC)CCN(C)C3C2 (stereo unspecified) | -4 | 0.85
39 | O=C1C[C@@H](C(=O)Nc2ccccc2)N=C(N2CCOCC2)N1 | -6 | 0.83
40 | C[C@H](Oc1ccccc1)C(=O)N1CCC(c2nc(-c3ccc4c(c3)OCO4)no2)CC1 | 29 | -0.72
41 | CC(=O)Nc1c(C)nn(-c2ccccc2)c1N1CCC(C(=O)N2CCC(N3CCCCC3)CC2)CC1 | -11 | 2
42 | COc1cccc(Cl)c1CC(=O)N(C)C[C@H](C)c1nnn[nH]1 | 8 | -1.36
43 | Cc1csc(CCNC(=O)N2CCOC(C)(C)C2)n1 | -6 | 0.6
44 | CN(C)C(=O)N1CCC(CNC(=O)C(C)(C)C)CC1 | 3 | -0.31
45 | O=C(NCC#CCN1CCOCC1)NCc1ccccc1 | -16 | 1.82
46 | Cc1ccc(S(=O)(=O)Nc2ccc(Oc3ccc4nnnn4n3)cc2)cc1 | -8 | 1.1
47 | Cn1c(CCN2CCOc3ccccc3[C@@H]2CO)nc2ccccc21 | -2 | 0.26
48 | O=C(CCn1cncn1)N1CC[C@@](O)(c2ccccc2)C1 | -17 | 1.49
49 | CC(C)c1noc([C@H](C)N(C)CC2CCCCC2)n1 | 4 | -0.43
50 | Cc1cc(N2CCN(C(=O)c3cccs3)CC2)nc(N2CCOCC2)n1 | -9 | 1.24
51 | Cc1nnc(COc2ccc(CCO)cc2-n2nc3ccccc3n2)s1 | -10 | 1.85
52 | CCOC(=O)CN(C(=O)Cc1cnn(C)c1)C1CCCCC1 | -6 | 0.57
53 | CC(C)(CN1C[C@H](C(=O)O)[C@@H](c2cccnc2)C1)N1CCCCC1 | -13 | 2.45
